# Measured values published in a collection of fitness landscapes (doi:10.1016/j.celrep.2020.107928).
# Over roughly 81,000 sequences, “one-hybrid fitness for binding parS DNA” has its median near -0.17; the highest 2% begin near 0.51. This is one part of the list.
# B1: Caulobacter ParB omega fusion; a variant is named by its letters at X, in order, B8GW30 (parent)
# chain: MESVVVGEPGMSEGRRGLGRGLSALLGEVDAAPAQAPGEQLGGSREAPIEILQRNPDQPRRTFREEDLEDLSNSIREKGVLQPILVRPSPDTAGEYQIVAGERAWRAAQRAGLKTVPIMVRELDDLAVLEIGIIENVQRADLNVLEEALSYKVLMEKFERTQENIAQTIGKSXSHVANXMRLLXLPDEVQSYLVSGELTAXHARAIAAAADPVALAKQIIEGGLSVRETEALARKAPNLSAGKSKGGRPPRVKDTDTQALESDLSSVLGLDVSIDHRGSTGTLTITYATLEQLDDLCNRLTRGI
# Variants of: B1
# Assay: one-hybrid fitness for binding parS DNA (scaled: cognate 1, non-cognate 0); higher = stronger binding
# Details: with parS DNA site
# Outline: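 Fitness here means the log change in variant-to-wild-type read ratio between plasmids sequenced before and after selection. That scale was set so cognate equals 1 and non-cognate equals 0. The selection was a bacterial one-hybrid screen of Caulobacter ParB libraries, four specificity codons randomised, in E. coli USO carrying a HIS3 reporter with the site 19 bp from the promoter, grown 48 hours at 37°C on M9-minus-histidine with 0.1 mM IPTG and 5 mM 3-AT.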
row,Variant,one-hybrid fitness for binding parS DNA
1,RFLW,≤ 0.2
2,DLQL,≤ 0.2
3,MLVH,≤ 0.2
4,IPFG,≤ 0.2
5,MCMT,≤ 0.2
6,WFTF,≤ 0.2
7,PHRV,≤ 0.2
8,AVHA,≤ 0.2
9,SRFT,≤ 0.2
10,ITHS,≤ 0.2
11,QARG,≤ 0.2
12,FWAR,≤ 0.2
13,PQGG,≤ 0.2
14,QYDD,≤ 0.2
15,TTTI,≤ 0.2
16,QDQW,≤ 0.2
17,IYHA,≤ 0.2
18,RERM,≤ 0.2
19,ALLC,≤ 0.2
20,DTYL,≤ 0.2
21,LGHC,≤ 0.2
22,RWKD,≤ 0.2
23,KETI,≤ 0.2
24,KCWK,0.223

row,Variant,one-hybrid fitness for binding parS DNA
1,QYDI,≤ 0.2
2,DANT,≤ 0.2
3,TNWP,≤ 0.2
4,QSAH,≤ 0.2
5,GTET,≤ 0.2
6,HMQG,≤ 0.2
7,NMNL,≤ 0.2
8,AAGV,≤ 0.2
9,WTGF,≤ 0.2
10,EQIL,≤ 0.2
11,VSVM,≤ 0.2
12,GDKG,≤ 0.2
13,LHGT,≤ 0.2
14,TNHM,≤ 0.2
15,QDFN,≤ 0.2
16,LWVV,≤ 0.2
17,EAQE,≤ 0.2
18,STFS,≤ 0.2
19,HGIV,≤ 0.2
20,NLMQ,≤ 0.2
21,MKSD,≤ 0.2
22,YHSA,≤ 0.2
23,WACR,≤ 0.2
24,TRFR,≤ 0.2

row,Variant,one-hybrid fitness for binding parS DNA
1,KSCD,≤ 0.2
2,SVTE,≤ 0.2
3,EYQG,≤ 0.2
4,HPNA,≤ 0.2
5,GRNG,≤ 0.2
6,AWYP,≤ 0.2
7,ECLN,≤ 0.2
8,RMEH,≤ 0.2
9,APKG,≤ 0.2
10,CSTV,≤ 0.2
11,ICNV,≤ 0.2
12,RLCC,0.995
13,DGQG,≤ 0.2
14,RDGF,≤ 0.2
15,VEYG,≤ 0.2
16,NGTA,≤ 0.2
17,RMRY,0.777
18,ERHT,≤ 0.2
19,HTKS,≤ 0.2
20,KLPR,≤ 0.2
21,IMSY,≤ 0.2
22,GSVL,≤ 0.2
23,KLYF,≤ 0.2
24,NDYC,≤ 0.2

row,Variant,one-hybrid fitness for binding parS DNA
1,LLCR,≤ 0.2
2,EYKC,≤ 0.2
3,SIQT,≤ 0.2
4,RDLT,≤ 0.2
5,RQFD,≤ 0.2
6,MEPG,≤ 0.2
7,QAWY,≤ 0.2
8,KYSG,≤ 0.2
9,AHTC,≤ 0.2
10,MCAS,≤ 0.2
11,DAQT,≤ 0.2
12,GRQS,≤ 0.2
13,TQAC,≤ 0.2
14,RGLY,≤ 0.2
15,HVSN,≤ 0.2
16,HKNF,≤ 0.2
17,PGVD,≤ 0.2
18,RLTW,0.239
19,STNS,≤ 0.2
20,RGPL,≤ 0.2
21,RFKF,0.33
22,RHFC,0.799
23,ETRF,≤ 0.2
24,SLEG,≤ 0.2

row,Variant,one-hybrid fitness for binding parS DNA
1,ATGQ,≤ 0.2
2,LCIY,≤ 0.2
3,PWTT,≤ 0.2
4,LMRP,≤ 0.2
5,YVQS,≤ 0.2
6,NDST,≤ 0.2
7,GDNT,≤ 0.2
8,ARVY,≤ 0.2
9,AEVT,≤ 0.2
10,YVTV,≤ 0.2
11,RPQF,≤ 0.2
12,APFV,≤ 0.2
13,FWTN,≤ 0.2
14,RAGY,0.473
15,YEEK,≤ 0.2
16,DAPI,≤ 0.2
17,ALWF,≤ 0.2
18,RSDI,≤ 0.2
19,VPQM,≤ 0.2
20,FAHC,≤ 0.2
21,DIYL,≤ 0.2
22,RILE,≤ 0.2
23,PVKM,≤ 0.2
24,HLCH,0.217

row,Variant,one-hybrid fitness for binding parS DNA
1,HLCY,≤ 0.2
2,QNHE,≤ 0.2
3,PYIT,≤ 0.2
4,YTPE,≤ 0.2
5,GETR,≤ 0.2
6,DFTS,≤ 0.2
7,AKRL,≤ 0.2
8,MCSG,≤ 0.2
9,LKSA,≤ 0.2
10,QFQL,≤ 0.2
11,RWNI,≤ 0.2
12,RIDS,0.987
13,SPNI,≤ 0.2
14,FASH,≤ 0.2
15,AAYC,≤ 0.2
16,TSPD,≤ 0.2
17,HAKG,≤ 0.2
18,LDDR,≤ 0.2
19,DTMK,0.236
20,TETW,≤ 0.2
21,CTQR,≤ 0.2
22,HIGF,≤ 0.2
23,PICG,≤ 0.2
24,DEVA,≤ 0.2

row,Variant,one-hybrid fitness for binding parS DNA
1,PIHY,≤ 0.2
2,WSQY,≤ 0.2
3,YTFT,≤ 0.2
4,MWPW,≤ 0.2
5,QKWA,≤ 0.2
6,HSAK,≤ 0.2
7,WLCI,≤ 0.2
8,CIRT,≤ 0.2
9,FCTI,≤ 0.2
10,ALIR,≤ 0.2
11,HYFR,≤ 0.2
12,AAGE,≤ 0.2
13,CCLS,≤ 0.2
14,QLKW,≤ 0.2
15,WMDV,≤ 0.2
16,RKME,≤ 0.2
17,MGLN,≤ 0.2
18,IYFS,≤ 0.2
19,THNQ,≤ 0.2
20,SCCR,≤ 0.2
21,TLNN,≤ 0.2
22,QGKT,≤ 0.2
23,HQDC,≤ 0.2
24,DAPN,≤ 0.2

row,Variant,one-hybrid fitness for binding parS DNA
1,VAPV,≤ 0.2
2,FSFG,≤ 0.2
3,RHYF,0.211
4,IPFR,≤ 0.2
5,WVTC,≤ 0.2
6,MVFC,≤ 0.2
7,LMHE,≤ 0.2
8,SHLS,≤ 0.2
9,KNSS,≤ 0.2
10,ACNY,≤ 0.2
11,MLVQ,≤ 0.2
12,QSKL,≤ 0.2
13,RMCN,0.389
14,KYPS,≤ 0.2
15,CIYG,≤ 0.2
16,VGTF,≤ 0.2
17,QETE,≤ 0.2
18,AVLL,≤ 0.2
19,KTRL,≤ 0.2
20,HAMA,≤ 0.2
21,RPTT,≤ 0.2
22,TPGC,≤ 0.2
23,RGFA,0.215
24,YDGG,≤ 0.2

row,Variant,one-hybrid fitness for binding parS DNA
1,TLYW,≤ 0.2
2,NDIP,≤ 0.2
3,GKSH,≤ 0.2
4,RPDH,≤ 0.2
5,RFNC,0.94
6,YKML,≤ 0.2
7,AYPP,≤ 0.2
8,QHTE,≤ 0.2
9,ALQY,≤ 0.2
10,GHKI,≤ 0.2
11,DPKV,≤ 0.2
12,HYKW,≤ 0.2
13,TFNV,≤ 0.2
14,IHPS,≤ 0.2
15,QNFC,≤ 0.2
16,YDTT,≤ 0.2
17,ANWS,≤ 0.2
18,RICK,0.208
19,TMNT,≤ 0.2
20,EMHA,≤ 0.2
21,AQNG,≤ 0.2
22,GVFR,≤ 0.2
23,NINQ,≤ 0.2
24,KFEG,≤ 0.2

row,Variant,one-hybrid fitness for binding parS DNA
1,AQLK,≤ 0.2
2,NPMT,≤ 0.2
3,SNEQ,≤ 0.2
4,KLYY,≤ 0.2
5,IMKY,≤ 0.2
6,NPMS,≤ 0.2
7,THAW,≤ 0.2
8,SIRA,≤ 0.2
9,HNKR,≤ 0.2
10,VPVS,≤ 0.2
11,SPQQ,≤ 0.2
12,SPTV,≤ 0.2
13,GVSD,≤ 0.2
14,IAKL,≤ 0.2
15,SDWV,≤ 0.2
16,RNMT,0.678
17,SRSC,≤ 0.2
18,SPGI,≤ 0.2
19,MVCV,≤ 0.2
20,HRFN,≤ 0.2
21,DWAC,≤ 0.2
22,PNCM,≤ 0.2
23,MGRL,≤ 0.2
24,GYEI,≤ 0.2

row,Variant,one-hybrid fitness for binding parS DNA
1,TVGT,≤ 0.2
2,MEVS,≤ 0.2
3,GHPM,≤ 0.2
4,SCRR,≤ 0.2
5,ADGS,≤ 0.2
6,RRFE,≤ 0.2
7,MSCV,≤ 0.2
8,RFEQ,≤ 0.2
9,NDMW,≤ 0.2
10,QPMG,≤ 0.2
11,WASV,≤ 0.2
12,CVKT,≤ 0.2
13,EFCR,≤ 0.2
14,VNTA,≤ 0.2
15,RKKH,0.317
16,YRSF,≤ 0.2
17,HIKC,≤ 0.2
18,TKQG,≤ 0.2
19,QTLY,≤ 0.2
20,EARE,≤ 0.2
21,NEEV,≤ 0.2
22,IVHC,≤ 0.2
23,RNHS,0.911
24,YFTS,≤ 0.2

row,Variant,one-hybrid fitness for binding parS DNA
1,LNLG,≤ 0.2
2,YFFT,≤ 0.2
3,NQAM,≤ 0.2
4,PNNR,≤ 0.2
5,NDCV,≤ 0.2
6,TDRS,≤ 0.2
7,LWHR,≤ 0.2
8,RKKA,0.846
9,VIVV,≤ 0.2
10,MQAA,≤ 0.2
11,AMDS,≤ 0.2
12,STHM,≤ 0.2
13,GVPC,≤ 0.2
14,QISP,≤ 0.2
15,MMRN,≤ 0.2
16,KYKW,≤ 0.2
17,EPKT,≤ 0.2
18,QIGV,≤ 0.2
19,QFSG,≤ 0.2
20,WRFT,≤ 0.2
21,CMMS,≤ 0.2
22,NKWT,≤ 0.2
23,KHES,≤ 0.2
24,TFGE,≤ 0.2

row,Variant,one-hybrid fitness for binding parS DNA
1,FMGS,≤ 0.2
2,NMRF,≤ 0.2
3,APGF,≤ 0.2
4,HSIC,≤ 0.2
5,TTSS,≤ 0.2
6,AVMM,≤ 0.2
7,YINS,≤ 0.2
8,MDRM,≤ 0.2
9,RRFR,≤ 0.2
10,GKLC,≤ 0.2
11,QATI,≤ 0.2
12,TTDV,≤ 0.2
13,HPAN,≤ 0.2
14,HLQR,≤ 0.2
15,CYNL,≤ 0.2
16,IKSK,≤ 0.2
17,VCES,≤ 0.2
18,WRNM,≤ 0.2
